Among all 310,000 compounds or so, about 14,000 (4.5%) showed an effect of 50% or more. Effects have a minus sign here. Some of the results follow.
target: human ether-à-go-go-related gene (hERG) potassium channel (human, UniProt Q12809); test: primary screen, population patch clamp on CHO cells stably expressing hERG
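Note: peak tail current of the secondary pulse compared with the same well before compound.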

human ether-à-go-go-related gene (hERG) potassium channel, sequence (Q12809 whole entry, looked up): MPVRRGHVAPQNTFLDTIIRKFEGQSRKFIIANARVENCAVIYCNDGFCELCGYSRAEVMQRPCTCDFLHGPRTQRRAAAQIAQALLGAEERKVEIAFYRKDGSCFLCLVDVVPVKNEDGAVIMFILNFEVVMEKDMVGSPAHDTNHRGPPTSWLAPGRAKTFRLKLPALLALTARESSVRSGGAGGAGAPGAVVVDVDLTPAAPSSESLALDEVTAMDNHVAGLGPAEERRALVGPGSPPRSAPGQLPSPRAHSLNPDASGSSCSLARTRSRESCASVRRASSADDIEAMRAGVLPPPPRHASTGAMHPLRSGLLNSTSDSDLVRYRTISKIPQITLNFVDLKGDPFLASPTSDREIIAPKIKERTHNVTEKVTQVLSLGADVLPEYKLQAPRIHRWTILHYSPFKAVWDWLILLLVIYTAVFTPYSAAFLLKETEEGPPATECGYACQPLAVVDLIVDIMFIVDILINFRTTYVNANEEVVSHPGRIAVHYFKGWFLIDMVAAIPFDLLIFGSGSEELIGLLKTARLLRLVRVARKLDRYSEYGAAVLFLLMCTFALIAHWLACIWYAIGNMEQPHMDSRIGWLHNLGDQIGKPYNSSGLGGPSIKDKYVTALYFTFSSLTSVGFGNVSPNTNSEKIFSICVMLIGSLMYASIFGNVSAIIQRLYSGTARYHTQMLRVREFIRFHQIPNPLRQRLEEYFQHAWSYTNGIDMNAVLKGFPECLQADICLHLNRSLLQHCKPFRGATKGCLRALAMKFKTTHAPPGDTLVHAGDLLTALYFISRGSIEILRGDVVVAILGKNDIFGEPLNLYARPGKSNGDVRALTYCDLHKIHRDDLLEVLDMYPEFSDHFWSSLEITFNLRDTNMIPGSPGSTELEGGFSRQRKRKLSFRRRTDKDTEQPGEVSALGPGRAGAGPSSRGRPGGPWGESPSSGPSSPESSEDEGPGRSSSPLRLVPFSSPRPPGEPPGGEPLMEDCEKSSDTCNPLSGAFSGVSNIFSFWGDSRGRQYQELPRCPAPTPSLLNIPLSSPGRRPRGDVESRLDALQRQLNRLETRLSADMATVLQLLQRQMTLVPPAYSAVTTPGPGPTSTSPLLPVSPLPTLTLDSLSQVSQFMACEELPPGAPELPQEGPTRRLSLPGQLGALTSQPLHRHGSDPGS

| SMILES | hERG current change (%, negative = inhibition) at 10uM [%] |
| --- | --- |
| COc1ccc(Cl)cc1C(=O)NNC(=O)c1cccc(S(=O)(=O)N(C)C)c1 | -6.73 |
| CCOC(=O)C1=C(O)C(=O)NC(c2ccccc2)=C(OC2CCCCC2)C1 | 5.9 |
| CN(C)CCNC(=S)Nc1ccccc1Cl | -0.904 |
| COc1ccc(/C=C(/NC(=O)c2ccc([N+](=O)[O-])cc2)C(=O)NC(C)(C)C)cc1 | -40.8 |
| CC(NC(=O)COC(=O)C1CSC2(C)CCC(=O)N12)C12CC3CC(CC(C3)C1)C2 (stereo not drawn) | 8.92 |
| COc1nn(CC(=O)N2N=C(C)CC2(O)C(F)F)cc1[N+](=O)[O-] (stereo not drawn) | 4.18 |
| COc1cc(/C=N\Nc2nc3ccccc3[nH]2)cc(OC)c1OC | -19.8 |
| COc1ccc(-c2cc(C(F)(F)F)n3nc(C(=O)NCc4ccco4)cc3n2)cc1OC | 3.75 |
| CCOc1cc(S(=O)(=O)NCC2OCCc3ccccc32)c(OCC)cc1-n1cnnn1 (stereo not drawn) | -21.5 |
| CC1CN(Cc2ccccn2)CCC1=O.Cl (stereo not drawn) | 8.17 |
| C/C(=N\N(C)c1ccccc1)c1c(O)[nH]c(=O)[nH]c1=O | 7.71 |
| CCN(CC)CCOCCOc1ccccc1F | -3.91 |
| Cc1cc(Br)ccc1-n1[nH]c(C)c(C=Nc2cccc3nsnc23)c1=O | 40.7 |
| Cn1nc(C(C)(C)C)cc1C(=O)Nc1nc2c(s1)C(=O)CC(C)(C)C2 | -21 |
| O=[N+]([O-])c1ccc2nonc2c1Nc1ccccc1 | -2.23 |
| COC(=O)C1=C(C(=O)OC)C(c2cc([N+](=O)[O-])ccc2O)c2sc(=O)[nH]c2S1 (stereo not drawn) | 1.28 |
| COC(=O)c1[nH]c2cccc(OC)c2c1NC(=O)C(C)N1CCC(C)CC1 (stereo not drawn) | -21.6 |
| Cn1c(CCN2CCCCC2)nc2cc(NS(=O)(=O)c3ccc(F)cc3)ccc21 | -67.6 |
| COc1ccc(-n2nc(C(=O)Nc3nc4ccc(OC)cc4s3)c3ccccc3c2=O)cc1 | 1.17 |
| COc1cccc(NC(=O)CSc2nc3ccccc3c(=O)n2Cc2cccs2)c1 | 8.3 |
| O=C1NC(=NCc2ccccc2)S/C1=C\c1ccccc1 | 23.8 |
| COc1cccc(NC(=O)COC(=O)c2cccnc2)c1 | 4.09 |
| CC(=O)c1sc2nc(-c3ccc(C)cc3)c3c(c2c1N)CCCC3 | 2.68 |
| O=C([C@@H]1CC=C[C@@H]2CCN(C3CC3)C(=O)[C@@H]21)N1CCN(c2ccccc2)CC1 | 4.08 |
| COc1ccc(/C=N/NS(=O)(=O)c2ccc(F)cc2)cc1COc1cc(F)ccc1[N+](=O)[O-] | -3.47 |
| COCCCNC(=O)c1ccc(N(C)S(=O)(=O)c2ccc(OC)cc2)cc1 | -20.6 |
| CCN(CC)S(=O)(=O)c1ccc(C(=O)NNc2nc(-c3ccccc3)c3cc(Br)ccc3n2)cc1 | 6.53 |

| SMILES | hERG current change (%, negative = inhibition) at 10uM [%] |
| --- | --- |
| Cn1nc(-c2ccccc2)c(C(=O)NCC(=O)O)c1Cl | 18 |
| CCN(CC)C(=O)COC(=O)c1ccc(C)c(NC(=O)c2ccco2)c1 | 32.3 |
| Cc1ccccc1NC(=O)/C(=C\c1cccs1)NC(=O)c1ccccc1 | -1.92 |
| Cc1cccc(NC(=O)CSCC(=O)N2CCN(Cc3ccc4c(c3)OCO4)CC2)c1 | -23.3 |
| COc1ccc(CCNC(=O)COC(=O)/C=C/c2ccc(OC)c(OC)c2)cc1 | -16 |
| Cc1ccc(Oc2ccc(S(=O)(=O)N3CCOCC3)cc2C(N)=O)c(-n2nc3ccccc3n2)c1 | -40 |
| CC1COc2ccccc2N1S(=O)(=O)c1ccc(Cl)cc1 (stereo not drawn) | -4.34 |
| CCc1ccc(CN2CCN(Cc3ccc(SC)cc3)CC2)cc1.O=C(O)C(=O)O | -67.9 |
| CCN(CC)S(=O)(=O)c1ccc(O)c(NC(=O)c2ccc(N3CCOCC3)c([N+](=O)[O-])c2)c1 | -2.91 |
| CC(C)(C)C(=O)Nc1nc(NC(=O)C(C)(C)C)nc(-c2ccccc2Cl)n1 | 2.78 |
| Cc1ccc(/C=C/C(=O)CCC(=O)O)cc1 | 12.2 |
| CCCC1CCC(=C(C#N)C(N)=O)CC1 (stereo not drawn) | -32.8 |
| O=C(NCc1ccc2c(c1)OCO2)c1c[nH]c2ccc(S(=O)(=O)N3CCOCC3)cc2c1=O | 0.962 |
| ClC1(Cl)CC1Cn1c(C2CC2)nc2ccccc21 (stereo not drawn) | -5.84 |
| CCN1C(=O)[C@H]2[C@@H](c3ccc(-c4ccc(Cl)c(Cl)c4)cc3)N3CCCC[C@@]3(C(=O)OC)[C@H]2C1=O.O=C(O)C(F)(F)F | 23.1 |
| Cc1[nH]c2ccccc2c1CCO | 5.37 |
| O=C(/C=C/c1ccccc1)OCc1cnc(Cl)s1 | -6.4 |
| O=C(c1ccco1)N1CCN(C(=O)C2CCN(S(=O)(=O)Cc3ccccc3)CC2)CC1 | -6.67 |
| COc1ccc(NC(=O)c2ccc3nccnc3c2)cc1 | 9.16 |
| Cc1cccc(N2CCN(c3nc4ccc(Cl)cc4n4cnnc34)CC2)c1C | -4.08 |
| O=C(O)C1=C[C@@H](C2CCCCC2)C[C@@H](OCCCCO)O1 | 9.42 |
| Cc1cc(C2(c3ccc(O)c(C)c3)C(=O)Nc3ccccc32)ccc1O | -5.5 |
| Br.N=C1c2ccccc2CN1NC(=O)c1ccc(F)cc1 | 5.11 |
| COc1ccc(NC(=O)Nc2ccc(OCc3ccccc3)cc2)cn1 | 20.4 |
| Cc1cc(C)c2c(N)c(C(=O)N3CCCCCC3)sc2n1 | -21.9 |
| O=C(NNC(=O)c1ccc2ccccc2n1)c1ccc(O)cc1 | -0.416 |
| Cc1ccc(C(=O)N2CCN(S(=O)(=O)c3ccccc3[N+](=O)[O-])CC2)o1 | -17.3 |

From PMC4336329 (PLoS ONE, 2015)
